Measured values: the supplement of paper PMC10126150
Sequences with one replicate were seen in a single cluster, so their values are uncertain.

System: ATP
Assay: switch fluorescence ratio, 500 uM ATP over buffer (Cy3 cluster intensity, sum of 5 cycles each) (fold (ratio)); higher = stronger signal-on switching upon ATP binding; sequences stand for … in TCGTCGGCAGCGTCAGATGTGTATAAGAGACAGTTTTTTTTTTTTTTTTTTTTTTTTT…TC
Conditions: aptamer strand: ATP DNA aptamer (quencher-CACCTGGGGGAGTATTGCGGAGGAAGG + anchor), 100 nM annealed; ATP concentration: 500 uM; one replicate
Procedure, shortened: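 Cy3-labelled switching-strand clusters on a modified Illumina MiSeq flow-cell were annealed to 100 nM quencher-labelled ATP aptamer and imaged first in selection buffer, then after 15 min with 500 uM ATP at 22 °C. NaOH stripping and re-annealing separated each of five buffer/ATP cycles, and clusters outside 100-1000 RFU were excluded. The fluorescence ratio sums target-cycle Cy3 intensity over buffer-cycle Cy3 intensity per cluster and averages it per switch-domain sequence.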
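Further: ATP exposure 15 min at 22 °C before imaging.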

AACGTTGATG
switch fluorescence ratio: 1.01

GATATTGTAC
switch fluorescence ratio: 1.04

ATGTATGGAA
switch fluorescence ratio: 1.01

CGATATAAT
switch fluorescence ratio: 1.01

TCTTGGCGTA
switch fluorescence ratio: 1.04

GGAATCTGTG
switch fluorescence ratio: 1.01

AATCTGGAA
switch fluorescence ratio: 1.01

CATGCATGTC
switch fluorescence ratio: 1.06

GTCGAAAGCC
switch fluorescence ratio: 0.953

CAGTGATATA
switch fluorescence ratio: 1.01

CGGTCGATAA
switch fluorescence ratio: 1.37

AGATATGGAT
switch fluorescence ratio: 0.96

GCATATTAGA
switch fluorescence ratio: 0.997

TTTTCGTGAT
switch fluorescence ratio: 1.02

ACACGGCGCC
switch fluorescence ratio: 0.991

ATTCTCAAAA
switch fluorescence ratio: 0.971

GTAGGGACTC
switch fluorescence ratio: 1.02

TTAGCCTAGA
switch fluorescence ratio: 1.02

TTACGACTGC
switch fluorescence ratio: 1.17

ATATGTCTCC
switch fluorescence ratio: 1.03

GCATTCTGTA
switch fluorescence ratio: 1.05

GGCAAAAAAC
switch fluorescence ratio: 1.03

GTAGCTCTGA
switch fluorescence ratio: 1.02

CTAGATCGTC
switch fluorescence ratio: 0.994

GATTTACTTT
switch fluorescence ratio: 0.964

AGCGTGGCTG
switch fluorescence ratio: 1.03

TGGAGGTATG
switch fluorescence ratio: 1

TGGTATTCTG
switch fluorescence ratio: 0.987

AAGGGCCGTT
switch fluorescence ratio: 1.04

CGCGCGGCAA
switch fluorescence ratio: 1.37

GATATCGTTT
switch fluorescence ratio: 1.02

AGGATGAACG
switch fluorescence ratio: 0.993

GGCGGGGAGA
switch fluorescence ratio: 0.987

GGCTAAGTGA
switch fluorescence ratio: 1.02

GACCACGTTA
switch fluorescence ratio: 1.18

CACAATGTTC
switch fluorescence ratio: 1.07

TCATTAATCT
switch fluorescence ratio: 1.03

CCGTAGGCGG
switch fluorescence ratio: 0.966

CGCAAAGCCA
switch fluorescence ratio: 1.04

TATAACCTCA
switch fluorescence ratio: 1.05

ATATGTTGGG
switch fluorescence ratio: 0.925

TTAGCGCGAA
switch fluorescence ratio: 1.03

AGGAGCCTGA
switch fluorescence ratio: 0.994

TGGATAACGT
switch fluorescence ratio: 0.953

AGCCGGAGG
switch fluorescence ratio: 1.01

GTCGGTGAA
switch fluorescence ratio: 0.974

ACAGGACGGT
switch fluorescence ratio: 1.1

GAAAATTTTC
switch fluorescence ratio: 1.01

TTTTCTCTTG
switch fluorescence ratio: 0.979

ATGGGCCT
switch fluorescence ratio: 1.03

ACGAACAGG
switch fluorescence ratio: 1.55

TACCGCTCCA
switch fluorescence ratio: 1.58

TCGGTTGCAG
switch fluorescence ratio: 0.954

AAGTCCTGAG
switch fluorescence ratio: 1.05

GACCTCCGTT
switch fluorescence ratio: 2.49

TCCGCCCTTA
switch fluorescence ratio: 1.32

TAAGGAGGTA
switch fluorescence ratio: 1

TCCGGGGGGA
switch fluorescence ratio: 1.43

CACATTGCTA
switch fluorescence ratio: 0.994

AAACTGAG
switch fluorescence ratio: 1.05

CATTTAACCC
switch fluorescence ratio: 0.995

CATAGTTTC
switch fluorescence ratio: 0.958

GATAACCG
switch fluorescence ratio: 1.05

TCCGCGGCAA
switch fluorescence ratio: 1.51

CACATAAACC
switch fluorescence ratio: 1.08

TGGCCGACTA
switch fluorescence ratio: 0.982

TCCAAGAAAT
switch fluorescence ratio: 1.07

GTATTATCCT
switch fluorescence ratio: 1.01

GACGTAGGGT
switch fluorescence ratio: 1.34

GGTTCAGAAT
switch fluorescence ratio: 1.04

TGCGGGAGCG
switch fluorescence ratio: 0.988

AGGCTCCGGT
switch fluorescence ratio: 1.01

CAATTGGAAG
switch fluorescence ratio: 0.969

ATGAGGGTGG
switch fluorescence ratio: 0.936

AAGGATTTGG
switch fluorescence ratio: 0.987

AAAAGCAG
switch fluorescence ratio: 0.986

GTCTCTGCAT
switch fluorescence ratio: 1.46

ACCGCTCGAG
switch fluorescence ratio: 1.13

ACTGGCCCAC
switch fluorescence ratio: 1.1

AACCTTACTT
switch fluorescence ratio: 1.58

TGAGGTAAGC
switch fluorescence ratio: 0.996

TATATCTGG
switch fluorescence ratio: 0.964

CGCGGCTGCT
switch fluorescence ratio: 0.992

GTGAATACCA
switch fluorescence ratio: 0.975

TCACTGGCTG
switch fluorescence ratio: 1.07

AGGTGCTATG
switch fluorescence ratio: 1.01

GGCGCGGATT
switch fluorescence ratio: 0.972

GCGGACATCC
switch fluorescence ratio: 1.01

AGGCTAACGT
switch fluorescence ratio: 0.979

GCGTGCGTTA
switch fluorescence ratio: 0.981

TCGACTGTGG
switch fluorescence ratio: 1

CCGGAACCGC
switch fluorescence ratio: 1.8

ACCCAACTCT
switch fluorescence ratio: 1.18

GTTCCGAAGG
switch fluorescence ratio: 1.03

ACGATGACGA
switch fluorescence ratio: 1.01

TTAATGGCTG
switch fluorescence ratio: 0.979

CGTTCGTATG
switch fluorescence ratio: 1

TTTGGTGAGC
switch fluorescence ratio: 0.972

ATTCTCCGGT
switch fluorescence ratio: 1.13

ATACATGGGG
switch fluorescence ratio: 1.02

TCTGCGATTC
switch fluorescence ratio: 1.85

GTATATATGA
switch fluorescence ratio: 0.999

CGTATAGGGG
switch fluorescence ratio: 0.939

TCAGCGTGTT
switch fluorescence ratio: 0.997

TGCCGTGTG
switch fluorescence ratio: 0.991

TGGGGACCAC
switch fluorescence ratio: 1.03

GGTTCGTAGG
switch fluorescence ratio: 1

ACCTCGATGC
switch fluorescence ratio: 1.63

CGTCAAGTTT
switch fluorescence ratio: 0.994

GTGCTAGTGG
switch fluorescence ratio: 0.986

TTCGGGTATA
switch fluorescence ratio: 0.972

GGCGACTTTT
switch fluorescence ratio: 1.06

TAAGCTCCGC
switch fluorescence ratio: 1.04

GATTCGGGTT
switch fluorescence ratio: 0.96

CAATCGGG
switch fluorescence ratio: 0.951

GTTGGCCCAC
switch fluorescence ratio: 1.12

ATTCCAGACA
switch fluorescence ratio: 0.978

GCACAGTGTG
switch fluorescence ratio: 1.05

TCCGTTCAGT
switch fluorescence ratio: 0.968

AACGGATGCC
switch fluorescence ratio: 1.03

ACCGGTACGG
switch fluorescence ratio: 0.948

TCTATT
switch fluorescence ratio: 0.984

CAAAATCCAC
switch fluorescence ratio: 1.03

GAGGTGCAGA
switch fluorescence ratio: 0.966

CTCTATTAAG
switch fluorescence ratio: 0.972

ATCCATGTTC
switch fluorescence ratio: 0.994

ATATGTCAGG
switch fluorescence ratio: 0.958

CAAAAAAGTA
switch fluorescence ratio: 0.978

CGACCATGGT
switch fluorescence ratio: 1.02

GGTAGCGGGT
switch fluorescence ratio: 1.03

CGTTTGCAAG
switch fluorescence ratio: 1.05

ACGGCAATCG
switch fluorescence ratio: 1.08

CGTTGACGTG
switch fluorescence ratio: 1.02

AGCCTCAGGT
switch fluorescence ratio: 1.1

CCAGCCTGAC
switch fluorescence ratio: 2

GGCAACCACG
switch fluorescence ratio: 1.12

AGGCTTGCAG
switch fluorescence ratio: 0.964

GCATATTCGT
switch fluorescence ratio: 1

TCTTGCCCCA
switch fluorescence ratio: 1.04

AACGCGAAGC
switch fluorescence ratio: 1

CACAGGAATA
switch fluorescence ratio: 1.09

TTGACATTGT
switch fluorescence ratio: 1.02

TAGGGGCAAG
switch fluorescence ratio: 1.03

CATGGCTTTT
switch fluorescence ratio: 1

TCGCGCGCGA
switch fluorescence ratio: 0.978

GATCAAGTTT
switch fluorescence ratio: 0.984

ATTAACTAAC
switch fluorescence ratio: 1.12

CTTTTTATAG
switch fluorescence ratio: 1.01

TGTGGAATGG
switch fluorescence ratio: 0.97

ACGTAGACAG
switch fluorescence ratio: 1.01

ACTAGGAGTA
switch fluorescence ratio: 0.967

CACTATGCCT
switch fluorescence ratio: 1.03

CACTGGTTTC
switch fluorescence ratio: 1.01

GTGCGTTAGC
switch fluorescence ratio: 1.03

GGGCGAGATT
switch fluorescence ratio: 1.05

AATAAGAAGA
switch fluorescence ratio: 0.993

AAGACAAATG
switch fluorescence ratio: 0.953

CAGATTGCAG
switch fluorescence ratio: 1
